This note sets out measurements from PubChem BioAssay AID360 (National Center for Advancing Translational Sciences (NCATS), 2006).

The campaign covered roughly 48,000 compounds. About 550 (1.1%) were called active. About 4% were inconclusive and are not listed. Cut-off read from the data, not from the text of the source: active = potency below about 15 µM; inconclusive = mostly about 16 µM to 33 µM; inactive = weaker than that. Some of the results follow. Some results are limits rather than exact numbers.
Potency is the fitted concentration of half-maximal effect.

The experiment deals with Lysosomal acid glucosylceramidase (Homo sapiens) (UniProt P04062). Briefly: Glucocerebrosidase.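 Note: the screen sought inhibitors.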 To be noted: purified enzyme, resorufin glucoside fluorescence (screen aimed at inhibitors), 20 min. In short, it runs like this: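 Wild-type enzyme at 0.2 nM final in 50mM citric acid/KH2PO4, 10mM sodium taurocholate, 0.01% tween-20, pH 5.9, with resorufin beta-D-glucopyranoside at 30 uM final. Compounds titrated, 20 min at RT, red fluorescence read; AC50 from titration.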
UniProt P04062, sequence (P04062 whole entry, looked up): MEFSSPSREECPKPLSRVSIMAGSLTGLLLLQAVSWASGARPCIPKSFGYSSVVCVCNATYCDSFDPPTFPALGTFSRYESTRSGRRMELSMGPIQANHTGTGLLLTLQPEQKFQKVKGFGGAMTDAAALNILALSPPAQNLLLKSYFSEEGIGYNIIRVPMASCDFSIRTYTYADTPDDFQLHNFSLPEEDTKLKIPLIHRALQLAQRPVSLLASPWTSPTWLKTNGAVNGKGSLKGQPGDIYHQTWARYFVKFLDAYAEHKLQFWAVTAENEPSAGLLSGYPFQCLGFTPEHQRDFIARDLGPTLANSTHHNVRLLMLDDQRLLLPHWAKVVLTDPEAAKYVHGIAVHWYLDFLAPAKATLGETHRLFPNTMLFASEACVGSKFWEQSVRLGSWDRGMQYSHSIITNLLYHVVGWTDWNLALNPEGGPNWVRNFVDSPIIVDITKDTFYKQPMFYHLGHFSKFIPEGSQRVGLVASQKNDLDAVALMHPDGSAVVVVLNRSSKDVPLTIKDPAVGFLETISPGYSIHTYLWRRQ
In the case of `COc1ccc(-c2ccc(SCC(=O)NCc3ccco3)nn2)cc1OC`, the Potency is inactive: > 76.9 µM.
On to `COc1cccc2[nH]c3c(N4CCC(C(N)=O)CC4)ncnc3c12`, for which the Potency was inactive: > 76.9 µM.
Regarding `COc1ccc(Cn2nnnc2C(c2cc3cc(C)cc(C)c3[nH]c2=O)N2CCOCC2)cc1` (centres undefined), the Potency is inactive: > 76.9 µM.
For `Cc1ccc2c(c1)nnn2C1CCN(S(C)(=O)=O)CC1`, the Potency is inactive: > 76.9 µM.
Take `Cc1sc2nc(CSc3nc4ccccc4c(=O)n3CCCN3CCOCC3)[nH]c(=O)c2c1C`: the Potency was inactive: > 76.9 µM.
For `CCOC(=O)C(NC(=O)CC)(Nc1ccccc1OC)C(F)(F)F` (centres undefined), the Potency was inactive: > 76.9 µM.
The result for `COc1ccccc1CC(NC(C)=O)C(=O)N1CCN(C(=O)Nc2ccccc2Cl)CC1` (centres undefined) reads inactive: > 76.9 µM.
The result for `Fc1ccc(F)c(CN2CCN(c3ncccn3)CC2)c1` reads inactive: > 76.9 µM; that for `CCn1c(SCC(=O)Nc2nc3ccccc3s2)nnc1-c1ccc(OC)cc1`, inactive: > 76.9 µM; that for `CC1CCN(S(=O)(=O)c2ccc3[nH]c(=O)c(=O)[nH]c3c2)CC1`, “inactive”.
With `Cc1cccc(N=C2NC(=O)CS2)c1`, the Potency was inactive: > 76.9 µM.
For `COCCCN1CC23C=CC(O2)C(C(=O)OC)C3C1=O` (centres undefined), the Potency is inactive: > 76.9 µM.
The result for `c1cc(-c2noc(CC3CCCCC3)n2)ccn1` reads inactive: > 76.9 µM; that for `Clc1cccc(CSc2nnc(-c3ccccn3)n2Cc2ccco2)c1`, “inactive”.
With `CC(C)(C)c1n[nH]c(=S)n(N)c1=O` the figure was inactive: > 76.9 µM.
As to `CCOc1ccc(N(C)S(=O)(=O)c2ccc3[nH]cc(C(=O)NCC4CCCO4)c(=O)c3c2)cc1` (centres undefined), the Potency was inactive: > 76.9 µM.
The result for `Cc1ccc(NC(=O)CCn2nc(C)cc2C)c(C)c1` reads inactive: > 76.9 µM; that for `O=C(CCN1CCN(CC(=O)Nc2ccccc2Cl)CC1)Nc1ccccc1F`, inactive: > 76.9 µM; that for `CC1CN(C2CCCCC2)c2nc3c(c(=O)[nH]c(=O)n3C)n2C1` (centres undefined), inactive: > 76.9 µM.
In the case of `CCOC(=O)c1cnc2scnn2c1=O`, the Potency was inactive: > 76.9 µM.
For the compound `CN(C)S(=O)(=O)N1CCN(CC(O)COc2ccc3cc(Br)ccc3c2)CC1` (centres undefined), the Potency is inactive: > 76.9 µM.
For `Cc1cc(C(=O)OCC(=O)NC2CCS(=O)(=O)C2)c(C)n1-c1ccccc1` (centres undefined), the Potency was inactive: > 76.9 µM.
With `CC12CCC(C(=O)Nc3cccc(NC(=O)C45CCC(C)(C(=O)O4)C5(C)C)n3)(OC1=O)C2(C)C` the figure was inactive: > 76.9 µM; with `COc1ccccc1C(=O)NC(CCSC)C(=O)NCC(c1ccco1)N(C)C` (centres undefined), inactive: > 76.9 µM; with `Clc1ccc(CN2C3=NCCN3c3ccccc32)cc1`, inactive: > 76.9 µM.
`Fc1cccc(F)c1CN1CCN(c2ncccn2)CC1`: the Potency was inactive: > 76.9 µM.
With `Nc1nc2n(c1C(=O)c1ccccc1)CCC2`, the Potency is inactive: > 76.9 µM.
On to `COc1ccc(N2CC(C)Cn3c2nc2c3c(=O)[nH]c(=O)n2C)cc1` (centres undefined), for which the Potency is inactive: > 76.9 µM.
`Cc1noc(C)c1C(=O)Nc1c(F)cc(F)cc1Br`: the Potency was inactive: > 76.9 µM.
On to `CCOC(=O)C1CCN(C(=O)CN(c2cccc(C(F)(F)F)c2)S(C)(=O)=O)CC1`, for which the Potency was inactive: > 76.9 µM.
The result for `O=C1c2ccccc2C(=O)N1CCc1nc2ccccc2c(=O)n1-c1ccccn1` reads inactive: > 76.9 µM; that for `Cc1nc(SCc2nc3ccccc3[nH]2)c2oc3ccccc3c2n1`, inactive: > 76.9 µM; that for `Cc1cc(C)cc(N(CC(=O)NCc2ccco2)C(=O)CCC(=O)Nc2ccccn2)c1`, inactive: > 76.9 µM.
As for `COc1ccc(N=c2oc3cc(O)ccc3cc2C(=O)NCC2CCCO2)cc1` (centres undefined), the Potency is inactive: > 76.9 µM.
In the case of `Cc1ccc(OCC(=O)NCc2ccccn2)cc1`, the Potency was inactive: > 76.9 µM.
With `Cc1ccc(C)n1CCN1CCN(C(=O)c2ccco2)CC1` the entry was “inactive”; with `Cc1nc(N2CCc3ccccc3C2)[nH]c(=O)c1CCC(C)C`, active: 5.28 µM.
Consider `Cc1nnc2n(Cc3ccccc3)c(=O)c3c4c(sc3n12)CCCC4`, for which the Potency was inactive: > 76.9 µM.
Regarding `CCCOC(=O)c1sc2nc3c(cc2c1N)C(=O)CCC3`, the Potency is inactive: > 76.9 µM.
Turning to `CC(Nc1cc(=O)n(C)c(=O)[nH]1)c1ccccc1` (centres undefined), the Potency is inactive: > 76.9 µM.
The result for `Cc1cc(C)c(C#N)c(SCC(=O)Nc2ccccc2C(N)=O)n1` reads inactive: > 76.9 µM.
In the case of `O=C(CCn1c(=O)[nH]c2ccccc2c1=O)NCCCN1CCN(c2cccc(Cl)c2)CC1`, the Potency is inactive: > 76.9 µM.
The result for `CCOC(=O)c1csc(NC(=O)c2ccc(S(=O)(=O)N(C)C)cc2)n1` reads inactive: > 76.9 µM; that for `Cc1cc(=O)oc2cc(OCC(=O)NCCCN3CCOCC3)ccc12`, inactive: > 76.9 µM.
For the compound `O=C(CN(Cc1ccco1)S(=O)(=O)c1cccs1)Nc1ccccc1C(F)(F)F`, the Potency is inactive: > 76.9 µM.
With `Cc1ccc(-c2nnc(N(C)C(=O)c3ccncc3)s2)cn1` the figure was inactive: > 76.9 µM; with `O=C(CN1C(=O)C2CC=C(Cl)CC2C1=O)N1CCOCC1` (centres undefined), inactive: > 76.9 µM.
Turning to `CC(C)Oc1ccccc1C1CC(=O)Nc2cc3c(cc21)OCCO3` (centres undefined), the Potency was inactive: > 76.9 µM.
Turning to `COc1ccc(OC)c(S(=O)(=O)N(C)CC(=O)Nc2ccccc2OC)c1`, the Potency was inactive: > 76.9 µM.
With `Cn1c(NC(=O)c2cccnc2)nc2ccccc21` the figure was inactive: > 76.9 µM; with `CC(=O)Nc1cc2c(nc1C)nc(C)n2Cc1ccc(Br)cc1`, inactive: > 76.9 µM.
Take `C/C(Sc1nnc(Cc2ccccc2)o1)=C(/O)c1ccccc1`: the Potency is inactive: > 76.9 µM.
As to `O=C1CC(N2CCSCC2)C(=O)N1CCc1ccccc1` (centres undefined), the Potency is inactive: > 76.9 µM.
For the compound `Cn1c(=O)n(C)c2cc(/C=N/n3cnnc3)ccc21`, the Potency is inactive: > 76.9 µM.
Turning to `COC(=O)CSc1nnc(CNc2ccc(Cl)cc2)n1Cc1ccccc1`, the Potency was inactive: > 76.9 µM.
Regarding `CCOC(=O)C1C(=O)NC(N2CCOCC2)=NC1C(C)C` (centres undefined), the Potency is inactive: > 76.9 µM.
On to `CCc1ccc2nc(NC(=O)CSCc3c(C)noc3C)sc2c1`, for which the Potency was inactive: > 76.9 µM.
For the compound `CCC(=O)Nc1cccc(C(=O)c2ccccc2)c1`, the Potency is inactive: > 76.9 µM.
The result for `Cc1onc(-c2ccccc2Cl)c1C(=O)Nc1cccc(-c2nc3ncccn3c2C)c1` reads “inactive”.
